Measured values reported in PubChem BioAssay AID1863 (Southern Research Specialized Biocontainment Screening …, 2009).
Out of some 300,000 compounds screened, about 480 (0.16%) were called active. The shares of active, inactive and inconclusive entries below differ from those in the screen.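 The calls were made as follows: active = inhibition over 29.93%, a cutoff 3 SD above the screen mean, later confirmed by dose response; inconclusive = inhibition over 29.93% but no dose response follow-up; inactive = inhibition at most 29.93% or unconfirmed.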

Assay: inhibitors of PhoP regulon expression, primary screen, Salmonella Typhimurium, GFP reporter (AID 1863);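 also: 0% = low Mg2+ inducing control and 100% = high Mg2+ repressing control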
Settings: S. Typhimurium PhoP-regulated promoter GFP reporter, 4 h; at 50 µM; stronger effect = higher value
With Oc1c(C(c2ccc(Cl)cc2)N2CCCC2)cc(Cl)c2cccnc12 (stereo unspecified) the inhibition was inactive: 4.49%. In the case of CCOc1cc(C2/C(=C(/O)c3ccc(OC(C)C)cc3)C(=O)C(=O)N2CCCOC)ccc1O (stereo unspecified), the inhibition was inactive: -4.64%. For Cc1[nH]n(-c2ccccc2)c(=O)c1C(c1cccc([N+](=O)[O-])c1O)c1c(C)[nH]n(-c2ccccc2)c1=O, the inhibition was inconclusive: 34.3%. In the case of Cc1ccc(-c2csc(N3N=C(c4ccccc4)/C(=C\c4ccc(N(C)C)cc4)C3=O)n2)cc1, the inhibition was inconclusive: 13.3%. With CC(=O)C(C(C)=O)c1c(Cl)c(O)c(O)c2c(C(=O)c3ccccc3)coc12 the inhibition was inconclusive: 30%. With Cc1cc(C)c(S(=O)(=O)/N=C2/C=C(Sc3ncn[nH]3)C(=O)c3ccccc32)cc1C the inhibition was inconclusive: 190%. In the case of O=C1c2ccccc2C2=Nc3ccccc3SC(c3ccc(Cl)cc3)C12 (stereo unspecified), the inhibition was inconclusive: 66.5%. For CCN(CCN1CCCC1)C(=O)C1CCC(=O)N(CCCN2CCOCC2)C1 (stereo unspecified), the inhibition was inactive: 2.18%. With COc1ccc(N=C2NN=C(c3c(C)[nH]c4ccccc34)CS2)cc1 the inhibition was inconclusive: 40.4%. For CCC(=O)N1c2ccc(C)cc2C2=NNC(=S)NC21O (stereo unspecified), the inhibition was inconclusive: 30.4%. For Cc1cc(C)cc(NC(=S)NCCc2ccc(S(N)(=O)=O)cc2)c1, the inhibition was inconclusive: 34.9%. In the case of Clc1ccccc1C(c1ccccc1)(c1ccccc1)n1ccnc1, the inhibition was inconclusive: 27.7%. In the case of NNC(=O)CN1C(c2ccccc2Br)=Nc2ccc(Br)cc2C1c1ccccc1 (stereo unspecified), the inhibition was inconclusive: 30.4%. With CCCCOc1ccc(NC2=NC3(CCCCC3)N=C(N)N2)cc1 the inhibition was inconclusive: 70.2%. For CN(C)S(=O)(=O)c1cccc(NC(=S)N/N=C/c2ccc(O)c(O)c2O)c1, the inhibition was inactive: -0.51%. For CCOc1ccc(NC(=O)CSC2=NCCN2)cc1, the inhibition was inconclusive: 30.7%. For N#CCOc1nc(N2CCOCC2)nc(N2CCOCC2)n1, the inhibition was inactive: -1.4%. With OC(CNCCc1ccc(C(F)(F)F)cc1)COc1ccc2ccccc2c1 (stereo unspecified) the inhibition was inconclusive: 196%. For O=C(CNc1cccc2ccccc12)c1ccc([N+](=O)[O-])cc1, the inhibition was inconclusive: 44.4%. For O=C(CNc1ccc2ccccc2c1)N/N=C/c1ccc([N+](=O)[O-])o1, the inhibition was inconclusive: 61.4%. In the case of COc1ccc(C(C(O)C(=O)c2c[nH]c3ccccc23)N2CCN(c3ccc(OC)cc3)CC2)cc1 (stereo unspecified), the inhibition was inconclusive: 33.1%. In the case of COc1ccc(NS(=O)(=O)c2ccc(NC(=S)NC(=O)c3cccnc3)cc2)nn1, the inhibition was inactive: 10.7%. For COc1ccc(NC(=S)N2CCC(C(O)(c3ccccc3)c3ccccc3)CC2)cc1, the inhibition was inconclusive: 32.6%. In the case of Nc1nc(-c2cccnc2)nn1C(=O)c1ccccc1Cl, the inhibition was inactive: 0.52%. With O=C(Cn1nc2ccccc2n1)N/N=C/c1cc([N+](=O)[O-])ccc1O the inhibition was inconclusive: 111%. With CCCCOC(=O)Cn1c(=N)n(CCC)c2ccccc21 the inhibition was inactive: 8.26%. In the case of Oc1ccc(Cl)cc1CNc1ccccn1, the inhibition was inactive: 14.1%. For OC(CNCCc1ccc(C(F)(F)F)cc1)COc1cccc2ccccc12 (stereo unspecified), the inhibition was inconclusive: 139%. In the case of CN(C)CCCNS(=O)(=O)c1ccc(N2CCC(c3ccc(Cl)cc3)=N2)cc1, the inhibition was inconclusive: 59.5%. In the case of O=C(CC1S/C(=N/N=C/c2c[nH]c3ccccc23)NC1=O)Nc1ccccc1 (stereo unspecified), the inhibition was inconclusive: 42%. For O=C(Cc1c[nH]c2ccccc12)N/N=C/c1cccc(F)c1, the inhibition was inconclusive: 35.9%. With COc1cc2nc(=S)n3[nH]c(COc4ccccc4C)nc3c2cc1OC the inhibition was inconclusive: 31.7%. In the case of COc1ccc(NC(=O)CN(c2ccc(C)cc2)S(=O)(=O)c2c(C)nn(C)c2C)cc1OC, the inhibition was inconclusive: 38.5%. With Cc1ccccc1S(=O)(=O)NNC(=O)C(=O)NNc1ccccn1 the inhibition was inconclusive: 39.3%. For COc1ccccc1NS(=O)(=O)c1cc(NC(=O)Nc2ccccc2)ccc1N1CCCCC1, the inhibition was inconclusive: 30.7%. With CCn1c2c(c(=N)c3c1CCC3)CCCC2 the inhibition was inactive: -3.7%.
